# Among all 310,000 compounds or so, about 14,000 (4.5%) showed an effect of 50% or more. The effect is printed as a negative number. Some of the results follow.
# Target: human ether-à-go-go-related gene (hERG) potassium channel (human, UniProt Q12809)
# Assay: primary screen, population patch clamp on CHO cells stably expressing hERG
# 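Further: peak tail current of the secondary pulse compared with the same well before compound.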
# Sequence of human ether-à-go-go-related gene (hERG) potassium channel (Q12809 whole entry, looked up): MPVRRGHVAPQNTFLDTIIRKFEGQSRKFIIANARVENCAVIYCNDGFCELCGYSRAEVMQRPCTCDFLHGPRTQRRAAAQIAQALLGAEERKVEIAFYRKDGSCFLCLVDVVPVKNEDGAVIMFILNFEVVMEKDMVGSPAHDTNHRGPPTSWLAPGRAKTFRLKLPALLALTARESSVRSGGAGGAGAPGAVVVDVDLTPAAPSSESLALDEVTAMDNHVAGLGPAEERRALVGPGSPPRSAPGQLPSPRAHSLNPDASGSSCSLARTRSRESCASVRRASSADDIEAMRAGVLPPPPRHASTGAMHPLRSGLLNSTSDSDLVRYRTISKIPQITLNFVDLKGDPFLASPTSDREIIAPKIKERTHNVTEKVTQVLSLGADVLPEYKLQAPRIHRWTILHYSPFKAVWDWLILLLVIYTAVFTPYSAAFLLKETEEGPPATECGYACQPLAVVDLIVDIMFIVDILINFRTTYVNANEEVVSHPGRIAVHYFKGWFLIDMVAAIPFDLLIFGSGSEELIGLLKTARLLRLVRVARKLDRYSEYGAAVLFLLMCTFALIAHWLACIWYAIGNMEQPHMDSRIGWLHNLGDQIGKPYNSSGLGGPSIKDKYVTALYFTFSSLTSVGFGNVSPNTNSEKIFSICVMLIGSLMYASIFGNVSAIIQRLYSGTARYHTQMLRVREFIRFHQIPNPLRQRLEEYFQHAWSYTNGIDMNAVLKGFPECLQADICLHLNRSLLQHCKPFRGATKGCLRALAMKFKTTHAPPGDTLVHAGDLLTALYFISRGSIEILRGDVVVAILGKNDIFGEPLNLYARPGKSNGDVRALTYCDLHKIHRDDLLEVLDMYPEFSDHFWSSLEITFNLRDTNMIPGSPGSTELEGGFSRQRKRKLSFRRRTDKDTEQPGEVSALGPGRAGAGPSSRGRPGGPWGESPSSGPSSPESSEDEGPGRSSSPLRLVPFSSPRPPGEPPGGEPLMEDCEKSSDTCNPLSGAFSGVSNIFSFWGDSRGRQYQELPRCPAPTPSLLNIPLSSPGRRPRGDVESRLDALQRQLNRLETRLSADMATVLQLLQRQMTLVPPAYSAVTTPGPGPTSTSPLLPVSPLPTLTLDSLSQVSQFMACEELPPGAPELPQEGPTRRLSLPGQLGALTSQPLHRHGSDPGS
row,Structure (SMILES),"hERG current change (%, negative = inhibition) at 10uM [%]"
1,COc1ccc(-c2nc(N)nc(N)n2)c(O)c1,9.39
2,COc1ccc(-c2cc(=NCC(=O)O)c3ccccc3o2)cc1.[O-][Cl+3]([O-])([O-])O,-31.5
3,COCC1CCCCN1Cc1cn[nH]c1-c1ccc2cc(OC)ccc2c1 (centres unmarked),-70.2
4,O=C(Nc1ccc(F)cc1)c1cccc(N2C(=O)C3C4C=CC(C4)C3C2=O)c1 (centres unmarked),-39.6
5,CCCC1OC23CCCCC2C(C#N)(C#N)C1(C#N)C(=N)O3 (centres unmarked),-6.73
6,c1ccc(C(c2ccccc2)c2nc(-c3cccnc3)no2)cc1,-0.438
7,CC(Cc1ccccc1)C(=O)NCCO (centres unmarked),7.87
8,Cn1c(=O)[nH]c(=O)c2c1nc(Br)n2CC(O)c1ccccc1 (centres unmarked),10.2
9,Cc1ccccc1NC(=O)N1CCN(c2ncccn2)CC1,4.15
10,O=C(Cn1cc(C(=O)COc2ccccc2)c2ccccc21)NCc1ccco1,-0.105
11,COc1ccc(Cc2nc3ccc(C(=O)NCCc4cccc(C)n4)cc3o2)cc1,-0.594
12,CCCCN=C(Nc1ccc(Cl)cc1)c1cccnc1,-9.16
13,O=C(O)CCn1cc(C=C2C(=O)NC(=S)NC2=O)c(-c2ccccc2)n1,19.2
14,O=S(=O)(Nc1nnc(C(F)(F)F)s1)c1ccc(Cl)cc1,10.8
15,CN1C(C(=O)NCc2ccc(OC(F)(F)F)cc2)CC2Cn3c(nc4ccccc43)C21 (centres unmarked),-78.7
16,CCCCC(=O)N(CCC)CCC,15.1
17,Cc1ccc(CCC(=O)Nc2ccc(C#N)cc2)o1,-14.8
18,CCCSc1nnc(CNC(=O)C23CC4CC(CC(C4)C2)C3)n1Cc1ccccc1,-24.4
19,CC1(C)OC(=O)C(=Cc2ccc(-c3ccc(Cl)c(C(=O)O)c3)o2)C(=O)O1,15.8
20,O=S(=O)(/C=C/c1ccccc1)N1CCN(Cc2ccccc2)CC1,-25.3
21,COC(=O)c1ccccc1NC(=O)Oc1ccc(C(C)C)cc1,2.1
22,O=C(O)CCCN1C(=O)C2C3c4ccccc4C(c4ccccc43)[C@@H]2C1=O (some centres unmarked),13

row,Structure (SMILES),"hERG current change (%, negative = inhibition) at 10uM [%]"
1,COc1ccc(NC(=O)c2cc(S(=O)(=O)N3CCCC3)cn2C)cc1Cl,1.28
2,COc1ccc(Cc2nc3ccccc3n2CC(=O)N/N=C/c2ccccc2)cc1OC,12.3
3,COc1ccc(N2CC(NS(=O)(=O)c3cccnc3)CC2=O)cc1OC (centres unmarked),36.3
4,Cc1cc(C)c(C)c(S(=O)(=O)NCC(=O)N2CCCC2)c1C,7.49
5,O=C1/C(=C\c2cccs2)Sc2ccc3ccccc3c21,9.58
6,O=C(C1CC(=O)N(c2ccccc2)C1)N1CCN(c2ccccc2F)CC1 (centres unmarked),-13.4
7,COc1ccccc1C(c1nnnn1Cc1ccccc1)N1CCN(c2nc3ccccc3s2)CC1.Cl (centres unmarked),23.1
8,COc1ccc(/C=C2\SC(=S)N(CCCC(=O)N3CCOCC3)C2=O)cc1,-21.5
9,CSCCC(NC(=O)c1ccccc1)C(=O)NCCc1ccc2c(c1)OCCO2 (centres unmarked),-8.03
10,Cn1c(SCC(=O)NNC(=O)Nc2ccccc2)nnc1-c1ccccc1,8.73
11,O=C(Nc1ccccc1C(=O)Nc1ccc2c(c1)OCO2)c1ccco1,2.46
12,COc1ccc(S(=O)(=O)N2CCC(C(=O)N[C@@H](C)C(=O)NCc3cccc(OC)c3)CC2)cc1,15.3
13,Nc1ccccc1Nc1cc(-c2ccccc2)nn1-c1ccccc1,-3.56
14,Fc1ccccc1CSc1nnnn1-c1ccc2c(c1)OCO2,-18.5
15,NS(=O)(=O)c1ccc(NC(=O)COC(=O)CCNC(=O)NC23CC4CC(CC(C4)C2)C3)cc1,0.608
16,Cc1coc2c1c(C)cc1oc(=O)c(CC(=O)N[C@@H](CC(C)C)C(=O)O)c(C)c12,-16.2
17,COc1ccc(OC)c(N2CC(O)(c3cccs3)[N+]3=C2SCCC3)c1.[Br-] (centres unmarked),-50.5
18,Cc1csc(NC(=O)C2COc3ccccc3O2)n1 (centres unmarked),-18.9
19,Cc1cccc(-n2c(N)cc(=O)[nH]c2=S)c1,-1.56
20,CSc1ccc(Cl)c(C(=O)NCCCn2ccnc2)c1,-7.9
21,O=C(NNC(=O)c1ccc(Cl)cc1Cl)c1csc(-c2cccnc2)n1,-44.8
22,Cc1cnc(C(=O)Nc2ccc(S(=O)(=O)N(C(C)C)C(C)C)cc2)cn1,2.87

row,Structure (SMILES),"hERG current change (%, negative = inhibition) at 10uM [%]"
1,COc1ccc(C2=C3C(=O)OCC3Cc3ncn(Cc4ccccc4)c32)cc1 (centres unmarked),4.51
2,O=C(c1nc2ccc(Cl)cn2c1CN1CCC(CO)CC1)N1CCc2ccccc2C1,-16.4
3,CC1CCN(S(=O)(=O)c2cc([N+](=O)[O-])ccc2Cl)CC1,-24
4,CC1(C2CC2)NC(=O)N(CC(=O)Nc2ccc(Cl)c([N+](=O)[O-])c2)C1=O (centres unmarked),-1.15
5,O=C(c1cc(COc2ccc(F)cc2Cl)on1)N(Cc1ccncc1)CC1CCCO1 (centres unmarked),-60.7
6,COc1ccccc1NC(=O)C(C)OC(=O)Cc1n[nH]c(=O)c2ccccc12 (centres unmarked),9.99
7,COCCNC(=O)COC(=O)c1ccc(S(=O)(=O)N2CCOCC2)cc1,13.6
8,CCCNC(=O)c1cc(-c2ccc(Br)cc2)on1,11.6
9,Cc1ccc(CNC(=O)CCCc2nc3ccccc3s2)cc1,-16.5
10,COc1ccccc1NC(=O)c1nnn(CC(=O)Nc2cc(C)cc(C)c2)c1N,17
11,COC(=O)c1sc2nc[nH]c(=O)c2c1C,14.5
12,COc1ccc(OC)c(NS(=O)(=O)c2ccc3c(c2)C(C)(C)C(=O)N3C)c1,-3.88
13,Cc1cc(C(=O)N2CCN(c3ncccn3)CC2)c2cc(F)ccc2n1,3.88
14,CCOC(=O)N1CCN(C(=O)COC(=O)CNC(=O)c2ccc(C)cc2)CC1,-5.95
15,Cc1ccccc1C(=O)Nc1ccccc1C(=O)NCc1ccccc1,-26.9
16,Fc1ccc(F)c(NC2=NCCCCC2)c1,13.8
17,Cc1oc2cc3oc(=O)c4c(c3cc2c1C)CCC4,-15.4
18,C=CCNC(=O)COC(=O)c1cc(S(=O)(=O)N2CCOCC2)ccc1N1CCCCC1,-22.6
19,CC1CCCN(S(=O)(=O)c2ccc(NC(=O)CCN3C(=O)c4ccccc4C3=O)cc2)C1 (centres unmarked),-6.72
20,CCCCCC(O)(CCN1CCCCC1)c1ccc(OCC)cc1.Cl (centres unmarked),-77.1
21,CC(/C=C(\NC(=O)c1ccccc1)C(=O)N=Nc1c(O)[nH]c2ccc(C)cc12)=C\c1ccccc1,4.93
22,Cc1cc(C)n2nc(C(=O)Nc3cccc(S(=O)(=O)N4CCCC4)c3)nc2n1,-2.92

row,Structure (SMILES),"hERG current change (%, negative = inhibition) at 10uM [%]"
1,O=C(Nc1ccccc1Cl)NC1(C(=O)N2CCC(O)CC2)CCCCC1,26.2
2,CC(C)n1cc(CN2CCC(Oc3ccc(C(=O)N4CCCCC4)cc3)CC2)cn1,-31.6
3,Cc1ccc(Nc2nc(C(=O)N3CCC(C(=O)NCc4ccccc4)CC3)cs2)cc1,-32.7
4,Cc1ccc2occ(/C=N/NC(=O)c3ccccc3Br)c(=O)c2c1,10.3
5,Cc1cccc2cc(/C=N/NC(=O)c3ccccc3O)c(Cl)nc12,-2.17
6,COc1ccc(C(=O)NNC(=O)C23CC4CC(CC(C4)C2)C3)c(OC)c1,11
7,CSc1nc(=S)n(-c2ccc([N+](=O)[O-])cc2)c(C)c1C(C)=O,-68.3
8,COc1ccc(C(=O)NCC(=O)OCCCOC(=O)CNC(=O)c2ccc(OC)c(OC)c2)cc1OC,0.22
9,O=C(Nc1ccc(-n2cnnn2)cc1)c1cccc(S(=O)(=O)N2CCCC2)c1,-19.1
10,CCC(=O)Nc1ccc(C(=O)CSc2nnc(-c3ccccc3F)n2C2CC2)cc1,18.7
11,O=[N+]([O-])c1cc([N+](=O)[O-])c(Oc2ccc(Cl)c3cccnc23)cc1NN1CCCCC1,3.6
12,Cc1ccc(S(=O)(=O)N2CCN(C(=O)C(C)Cn3nc(C)c(C)c3C)CC2)cc1C (centres unmarked),-8.42
13,COc1ccc(N2CCN(C(=S)NCc3ccccc3)CC2)cc1,15.3
14,O=C(O)c1ccc(N/N=C/c2cn(Cc3ccccc3F)c3ccccc23)cc1,-3.35
15,NS(=O)(=O)c1ccc(CCNC(=O)COC(=O)c2nc(Cl)ccc2Cl)cc1,10.1
16,CCN(CC)c1ccc(NC(=O)CC2Oc3ccccc3NC2=O)c(C)c1 (centres unmarked),-12.9
17,Cc1ccc(C)c(S(=O)(=O)N2CCN(C(=O)Cc3ccsc3)CC2)c1,-33.1
18,N#C/C(=C\c1cccc([N+](=O)[O-])c1)c1nnc2n1CCCCC2,-20.7
19,O=C(COC(=O)c1ccc(Cl)c(S(=O)(=O)N2CCCC2)c1)NC1CCCC1,-21.6
20,CC(=O)c1ccc(N2CCN(C(=O)CCCn3c(=O)[nH]c4ccsc4c3=O)CC2)cc1,13.9
